Assay results reported in PubChem BioAssay AID485297 (National Center for Advancing Translational Sciences (NCATS), 2010).
In all, about 320,000 compounds went through this assay and about 9,100 (2.8%) were called active. The shares of active, inactive and inconclusive entries below differ from those in the screen. The call rests on the fitted dose curve; in most records, active means well fitted activation curve with a large enough effect; inconclusive means small, poorly fitted or top-dose-only effect; inactive means no such curve, though single readings can be large or run the other way. No potency is given beside an inconclusive call; the fits are too rough.

assay: qHTS Assay for Rab9 Promoter Activators; settings: Huh7 Rab9 promoter-luciferase reporter, luminescence, 24 h; series mostly up to 9.22 µM; activation, negative = inhibition: at the top concentration; further: nearly all actives have a fitted effect of over 60% in size; on activation, negative = inhibition: % of control where 0% means no effect
Method in brief: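 Rab9 promoter-driven luciferase in stably transfected Huh7 cells; 1500 cells/well rested 2 h, exposed to compound in DMSO for 24 h at 37 °C, 5% CO2. Luminescence read 10 min after adding luciferase reagent at ambient temperature.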
Potency means the concentration at half of the fitted maximal effect; tags describe the fitted curve by direction and shape.

Compound	Potency	activation, negative = inhibition
Oc1[nH]c2ccccc2c1C=Nc1ccccc1	inconclusive [activator, single point]	
COc1c(C(=O)NNC(=O)c2ccccc2Cl)csc1Br	inconclusive [activator, partial curve]	
O=C(c1ccc2ccccc2c1)N1CCc2ccccc21	inconclusive [activator, single point]	
Cc1ccc(C(=O)Nc2ccc3[nH]c(=O)[nH]c3c2)c(C)c1	inconclusive [activator, single point]	
CCc1ccc(-c2ccc(C(=O)O)c(C)n2)cc1	inconclusive [activator, single point]	
Cc1ccc(C)n1-c1ccc(C(=O)NCC2CCCO2)cc1 (configuration not stated)	inconclusive [activator, single point]	
Cc1cccc(C(=O)OCC(=O)NC(C)CCc2ccccc2)c1 (configuration not stated)	inconclusive [activator, single point]	
COc1ccc(NC(=O)CSc2ccc3ccccc3c2)cc1S(=O)(=O)N1CCCCC1		inactive: -9.35%
CN(C)c1ccc(C(=O)Nc2nc3c(s2)CCCC3)cc1	active: 0.316 µM	
N/C(Cc1cccs1)=N\OC(=O)COc1ccccc1Cl	inconclusive [activator, partial curve]	
Nc1[nH]c(N=NC(=O)c2ccccc2O)c2ccccc12	active: 2 µM	
N/C(=N\N=C\c1ccc(O)c(O)c1)c1nonc1N	inconclusive [activator, single point]	
O=C1c2ccccc2-c2nc3ccccc3n21	inconclusive [activator, partial curve]	
Cc1csc(NC(=O)Nc2cccc(Cl)c2)n1	inconclusive [activator, single point]	
O=C(C1CC(=O)N(C2CCCC2)C1)N1CCN(c2cccc(Cl)c2)CC1 (configuration not stated)		inactive: 5.8%
O=C(NCc1ccccc1)c1cc(-c2ccco2)on1	inconclusive [activator, full curve, poor fit]	
Cc1cc(C(=O)Nc2ccc(CC(=O)O)cc2)c(C)o1		inactive: 2.96%
O=C(CSc1nnc(SCc2ccccc2)s1)N/N=C/C=C/c1ccccc1[N+](=O)[O-]		inactive: -3.32%
COC(=O)c1cc(/C=C/c2ccccc2)[nH]n1	inconclusive [activator, single point]	
Cc1ccc(NC(=O)COC(=O)Cn2c(C)csc2=O)cc1C		inactive: 0.196%
O=c1c2cc(-c3ccccc3)sc2nc2n1N=C(c1cccs1)CS2	active: 1.12 µM	
O=C(NCCC(=O)N1CCc2ccccc21)c1ccco1	inconclusive [activator, partial curve]	
COc1ccc(-c2cc3c(=O)n(CC(=O)NCCCN4CCN(Cc5ccccc5)CC4)ncn3n2)cc1	inconclusive [activator, partial curve]	
CCOc1ccc(C(=O)NCC(=O)OCC(=O)N2CCC(C)CC2)cc1		inactive: -1.45%
COc1cc(NC(=S)N2CCN(C)CC2)c(OC)cc1Cl	inconclusive [activator, single point]	
CN(C)C=Nc1ncc2c([nH]c3ccccc32)c1C#N	inconclusive [activator, partial curve]	

Compound	Potency	activation, negative = inhibition
CC/C(=N\NC(=O)c1csc(C)c1C)c1cccs1	active: 1.12 µM	
C=CCOc1c(CNc2cccc(C(=O)O)c2)cccc1OC	inconclusive [activator, full curve]	
CCN(CC)C(=O)C(=O)N/N=C/c1ccc(F)cc1		inactive: -0.0752%
Cc1nc(NC(=O)c2oc3ccccc3c2C)sc1C(=O)N(C)C	active: 2.82 µM	
COc1ccc(-c2noc(-c3ccc(C)cc3)n2)cc1	active: 2 µM	
C/C(=C\C(=O)c1ccccc1)Nc1ccc2c(c1)OCO2	active: 3.98 µM	
O=C(/C=C/c1ccccc1Cl)NCCc1ccccc1	inconclusive [activator, single point]	
CCC(NS(=O)(=O)c1ccc(OC)cc1)C(=O)NCCC1=CCCCC1 (configuration not stated)		inactive: 1.81%
CCN(C(=O)COC(=O)c1c(C)nn(-c2ccccc2)c1C)C1CCS(=O)(=O)C1 (configuration not stated)	inconclusive [activator, single point]	
CCc1sc(C(=O)Nc2cccnc2)cc1Br	inconclusive [activator, partial curve]	
COCCNC(=O)CN(C(=O)CCC(=O)Nc1ccccn1)c1cc(C)ccc1C		inactive: -2.47%
CC(C)Cc1ccc(C(C)NC(=O)c2ccc(=O)[nH]c2)cc1 (configuration not stated)		inactive: -1.83%
Cc1csc2cc(-c3cccc([N+](=O)[O-])c3)c(-c3cccc([N+](=O)[O-])c3)c[n+]12		inactive: 1.34%
Cc1ccc(-n2c(C)cc(/C=C3/SC(=O)N(CC(=O)N4CCOCC4)C3=O)c2C)nc1	inconclusive [activator, partial curve]	
O=[N+]([O-])c1cccc2ccc(/C=C/c3ccc(Cl)cc3)nc12	inconclusive [activator, partial curve]	
COc1ccc(NC(=O)c2cc(S(=O)(=O)N3CCOCC3)cn2C)cc1Cl		inactive: 0.71%
CC(=O)Nc1ccc(Nc2ncnc3c2cnn3-c2ccccc2)cc1	inconclusive [activator, partial curve]	
CC(C)C(=O)NNc1nc2ccccc2s1	inconclusive [activator, single point]	
CCCC(=O)Nc1nc(-c2ccc(OC)cc2)cs1	inconclusive [activator, partial curve]	
O=C(Nc1nc(-c2ccncc2)cs1)c1ccco1		inactive: 22.2%
NC(=O)CC(NC(=O)c1cccc(Br)c1)c1ccc(N2CCN(c3ccccn3)CC2)c([N+](=O)[O-])c1 (configuration not stated)		inactive: -4.94%
O=C(N/N=C/c1c[nH]c2ccccc12)c1ccc(Cl)cc1	inconclusive [activator, single point]	
O=C(Cc1ccccc1F)Nc1ccccc1-c1ccccc1	inconclusive [activator, single point]	
COc1cccc(/C=C/C(=O)c2ccc(NS(=O)(=O)c3ccc(C)cc3)cc2)c1		inactive: -12.7%
CCOc1ccc(-n2c(=O)c3sccc3n(Cc3cccc([N+](=O)[O-])c3)c2=O)cc1	inconclusive [activator, partial curve, poor fit]	
O=C(CSc1ccccn1)Nc1ccc2c(c1)OCO2	inconclusive [activator, single point]	

Compound	Potency	activation, negative = inhibition
COc1c(C)cccc1C(=O)Nc1ccc(N2CCOCC2)c(Cl)c1	active: 3.16 µM	
CC1C(=O)C(C)C(c2cc(Cl)ccc2O)NC1c1cc(Cl)ccc1O (configuration not stated)		inactive: -7.14%
Cc1cccc(C(=O)O/N=C(\N)c2ccccn2)c1	active: 3.98 µM	
O=C(Nc1cnn(Cc2c(Cl)cccc2Cl)c1)c1ccc([N+](=O)[O-])cc1	inconclusive [activator, partial curve]	
O=C(NCCC(=O)N1CCCCC1)c1ccc(Br)cc1	inconclusive [activator, partial curve]	
Cc1cccc(N2CCN(S(=O)(=O)c3cnc[nH]3)CC2)c1C		inactive: -7.88%
COc1cc(/C=N/n2c(C)n[nH]c2=S)ccc1OCc1ccccc1	inconclusive [activator, partial curve]	
O=C(Nc1ccc2c(c1)OCCO2)C1CCN(C(=O)c2ccc(F)cc2)CC1	inconclusive [activator, single point]	
CCCCn1cnc2c(sc3nc4c(cc32)CSC(C)(C)C4)c1=O	active: 1.12 µM	
O=C(c1ccc(COCC(F)(F)F)cc1)N1CCN(c2ccccn2)CC1	inconclusive [activator, partial curve]	
COc1ccc(NC(=O)c2ccccn2)cc1	inconclusive [activator, partial curve]	
COc1ccc(-c2cc(-c3cc(F)ccc3O)[nH]n2)cc1OC	active: 3.98 µM	
Cc1[nH]n(-c2ccccc2)c(=O)c1N=Nc1ccccc1	inconclusive [activator, single point]	
Fc1ccc(CSc2nc3ncccc3[nH]2)cc1	inconclusive [activator, single point]	
CC(c1ccon1)N(C)C(=O)CCc1nnc(CCCCc2ccccc2)o1 (configuration not stated)		inactive: 7.87%
Cc1nc2scc(-c3ccccc3)c2c(=O)n1N		inactive: -1.23%
CC(NC(=O)Cn1cccc1)c1ccccc1 (configuration not stated)		inactive: -0.605%
COCCNC(=O)C(c1ccc(C)cc1)N(C(=O)CCC(=O)Nc1ccccn1)c1ccccc1C (configuration not stated)		inactive: -4.05%
Cc1cccc(C(=O)NNC2=CC(=O)CC(C)(C)C2)c1O	inconclusive [activator, single point]	
COc1ccc(/C=C(\CC(=O)O)c2nc3ccccc3o2)cc1	inconclusive [activator, single point]	
Cc1ccc(C(=O)Nc2cnc3ccccc3c2)cc1	inconclusive [activator, partial curve]	
COc1ccccc1N1CCN(C(=O)c2ccc3c(=O)n(Cc4ccc5c(c4)OCO5)c(=O)[nH]c3c2)CC1		inactive: -3.73%
COc1ccc([C@@H]2CC(=O)c3c(O)cc(O)cc3O2)cc1O	inconclusive [activator, single point]	
COc1cc(C(=O)NCc2ccc(-c3nc4ccccc4s3)cc2)cc(OC)c1OC	inconclusive [activator, partial curve]	
O=C(Nc1ccccn1)Nc1ccccc1Cl	inconclusive [activator, partial curve]	
